PubChem BioAssay AID1645887 (National Center for Advancing Translational Sciences (NCATS), 2021)
Several values for one entry are separate records, joined by “and”; a condition that tells them apart may be missing. Equal entries are not always repeated. Among all 16,000 compounds or so, about 40 (0.2%) were called active. Not shown: some 1% with an inconclusive outcome. Calls follow the shape of the dose curve; as a rule, active = well fitted activation curve with a large enough effect; inconclusive = small, poorly fitted or top-dose-only effect, or another doubt; inactive = no such curve, though single readings can be large or run the other way. Some of the results follow.

Target: Rap guanine nucleotide exchange factor 4 (Homo sapiens) (UniProt Q8WZA2)
Sequence of UniProt Q8WZA2 (Q8WZA2 whole entry, looked up): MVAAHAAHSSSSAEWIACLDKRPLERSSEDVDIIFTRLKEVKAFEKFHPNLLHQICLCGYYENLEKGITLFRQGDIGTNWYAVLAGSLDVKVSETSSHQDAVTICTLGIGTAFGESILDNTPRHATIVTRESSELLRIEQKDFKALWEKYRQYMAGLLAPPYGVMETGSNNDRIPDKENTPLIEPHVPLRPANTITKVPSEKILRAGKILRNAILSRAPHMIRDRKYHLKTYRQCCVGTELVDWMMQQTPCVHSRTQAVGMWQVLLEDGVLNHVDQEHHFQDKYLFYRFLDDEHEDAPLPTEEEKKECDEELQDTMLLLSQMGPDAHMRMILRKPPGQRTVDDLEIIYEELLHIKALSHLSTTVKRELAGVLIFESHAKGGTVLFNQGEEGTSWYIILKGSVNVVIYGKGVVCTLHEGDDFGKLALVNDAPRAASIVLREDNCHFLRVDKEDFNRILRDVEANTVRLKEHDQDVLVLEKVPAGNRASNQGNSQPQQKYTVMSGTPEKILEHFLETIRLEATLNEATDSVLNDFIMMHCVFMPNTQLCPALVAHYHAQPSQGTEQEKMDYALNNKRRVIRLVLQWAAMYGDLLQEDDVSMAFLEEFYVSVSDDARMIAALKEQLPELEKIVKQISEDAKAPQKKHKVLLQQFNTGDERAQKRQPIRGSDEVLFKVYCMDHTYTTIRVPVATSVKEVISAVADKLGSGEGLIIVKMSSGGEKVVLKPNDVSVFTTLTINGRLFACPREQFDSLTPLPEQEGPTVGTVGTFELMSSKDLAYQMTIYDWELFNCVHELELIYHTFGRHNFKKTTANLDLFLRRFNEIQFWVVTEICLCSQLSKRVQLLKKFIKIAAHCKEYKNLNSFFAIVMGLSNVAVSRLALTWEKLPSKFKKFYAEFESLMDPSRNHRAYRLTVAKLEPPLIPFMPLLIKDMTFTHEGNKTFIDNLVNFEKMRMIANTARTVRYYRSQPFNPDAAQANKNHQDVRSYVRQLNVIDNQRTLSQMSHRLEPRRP
Test: Validation qHTS for agonist of cAMP-regulated guanine nucleotide exchange factor 4 (EPAC2);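 also: exchange makes BODIPY-GDP fluorescence drop when released from Rap1B; series mostly up to about 150 µM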
Conditions: EPAC2 Rap1B BODIPY-GDP exchange, fluorescence; activation: active compounds read high
Summary of the method: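 Signal normalized against 6.5 mM cAMP as agonist control. Mix of EPAC2 (100 nM), RAP1B-BODIPY-GDP (250 nM) and GDP (50 uM) was read kinetically at 480/540 nm, every 5 min over 30 min, after 5 min room-temperature incubation with compound.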
% is scaled to controls: 0 for no effect and ±100 for the full control effect.

activation, inactive:
COCCn1c(=O)c(-c2ccc(Cl)cc2)nc2cnc(OC)nc21 16.3%, FC(F)(F)c1ccccc1-c1cc(NCc2cccnc2)ncn1 -3.9%, Cn1cc(C(F)(F)F)nc1-c1ccc(OCC(O)CNCCOc2ccc(O)c(C(N)=O)c2)cc1 (centres undefined) -4.99% and -23.7%, CN1CCN2c3ncccc3Cc3ccccc3C2C1 (centres undefined) -15.3% and 5.53%, COc1ccccc1CN1CCC2(CC1)CCN(C(=O)c1ccncc1)CC2 -11.4%, CS(=O)(=O)Nc1cccc(-c2ccc3ncnc(NC4CCNCC4)c3c2)c1 -4.57%, CN1CCC(=O)N([C@H](COc2ccccc2)Cc2ccccc2)CC1 -12.4%, O=S(O)CO -1.41%, CO[C@H]1C=CO[C@@]2(C)Oc3c(C)c(O)c4c(O)c(c(C=NN5CCN(C)CC5)c(O)c4c3C2=O)NC(=O)C(C)=CC=C[C@H](C)[C@H](O)[C@@H](C)[C@@H](O)[C@@H](C)[C@H](OC(C)=O)[C@H]1C -9.42%, CC(C)C(=O)NCC1CCC2(CCN(Cc3ccc(-c4ccccc4Cl)o3)CC2)O1 (centres undefined) 4.03%, COC(=O)CC1C(C)(C)C(=O)C2CC3=C4CC(=O)OC(c5ccoc5)[C@]4(C)CCC3[C@@]1(C)C2=O (some centres undefined) -11.6%, COc1cc(NS(=O)(=O)c2ccc(N)cc2)ncn1 4.94% and -16.4%, CC(C)=CCc1c2c(c3occ(-c4ccc(O)c(O)c4)c(=O)c3c1O)C=CC(C)(C)O2 -63.6%, O=C(c1cc(C(F)(F)F)cc(C(F)(F)F)c1)N1CCC[C@@]2(CCN(c3ncccn3)C2)C1 -18.4%, COc1ccccc1CCn1c(=O)c(-c2cc(F)cc(F)c2)nc2cncnc21 -11.3%, N#CCCn1c(=O)c(-c2cccs2)nc2cnc(Nc3ccccc3)nc21 -2.03%, Cc1cc(C)nc(NS(=O)(=O)c2ccc(N)cc2)n1 -20% and -4.01%, CC1(C)S[C@@H]2C(C(=O)OCc3ccccc3)NC(=O)N2C1C(=O)OCc1ccccc1 (some centres undefined) -9.09%, C/C=C(\C)C(=O)OC1[C@@H]2C=C3C4CC(=O)OC(c5ccoc5)[C@]4(C)CCC3[C@@](C)(C2=O)C(C(O)C(=O)OC)C1(C)C (some centres undefined) -6.19%, O=c1cnc2cncnc2n1Cc1ccc(F)cc1 9.41%, CN(C(=O)CN(CCO)CC(=O)N(C)C(C)(C)Cc1ccccc1)C(C)(C)Cc1ccccc1 -15% and -17.7%, COC(=O)N/N=C/c1c[n+]([O-])c2ccccc2[n+]1[O-] -10.8%, COc1ccc2c(c1)CCc1cnc(-n3ncc(C(=O)NCc4cc(C)no4)c3C3CC3)nc1-2 -6.76%, c1ccc2cc(C3=NCCN3)ncc2c1 1%, COCCn1c(=O)cnc2cnc(N3CCNCC3)nc21 -2.89%, O=C(c1csnn1)N1CCC[C@@]2(CCN(Cc3cc(C(F)(F)F)cc(C(F)(F)F)c3)C2)C1 -27.9%, O=C(O)C1=CC(=C(c2ccc(O)c(C(=O)O)c2)c2ccc(O)c(C(=O)O)c2)C=CC1=O -31.3% and -33.8%, CCCCCCCCN1[C@@H](CC(=O)OC)c2cc(F)ccc2S1(=O)=O -13.8%, O=c1cc(-c2ccccc2)oc2ccccc12 13.2%, COCc1c(C(=O)N2CCCCC2c2cccnc2)cnn1-c1ncc2c(n1)-c1ccccc1CCC2 (centres undefined) -15.6%, Cc1ccc(OCC(O)C(C)NC(C)C)c2c1CCC2 (centres undefined) 7.97%, CN(C)c1ncc2nc(-c3cccc(C#N)c3)c(=O)n(C)c2n1 -31.5%, CCCn1c(=O)c(C)cn2nc(N)nc12 0.784% and -37.7%, CC(C(O)c1ccc(O)cc1)N1CCC(Cc2ccccc2)CC1 (centres undefined) 24.4% and -16.1%, CN1CCN(c2ncc3nc(-c4ccccc4)c(=O)n(CCC#N)c3n2)CC1 -25.8%, CN(Cc1ccccc1)Cc1ccccc1 -8.8%, CCCCCCCCCCCCCCCC(=O)N[C@@H](COP(=O)(O)O)C(=O)O -9.78%, O=c1ccn([C@@H]2O[C@H](COP(=O)(O)OP(=O)(O)O)[C@@H](O)[C@H]2O)c(=O)[nH]1 4.39% and -4.82%, C[C@@H]1C/C=C/C=C/C=C/C=C/[C@H](O[C@@H]2O[C@H](C)[C@@H](O)[C@H](N)[C@@H]2O)C[C@@H]2O[C@](O)(C[C@@H](O)C[C@H]3O[C@@H]3/C=C/C(=O)O1)C[C@H](O)[C@H]2C(=O)O -5.35%, COc1ccc(SC[C@H](C)CN2CC[C@H](NC(=O)OCc3ccccc3)CCC2=O)cc1 -12%, CN1CCN(c2nc(-c3ccc4c(c3)OCO4)nc3ccccc23)CC1 -6.12%, CN(C)c1ncc2nc(CCc3ccccc3)c(=O)n(-c3ccccc3)c2n1 21.3%, Cc1c(N)c(=O)n(-c2ccccc2)n1C 12.9% and 17.1%, C(=C\c1ccnc2ccccc12)/c1ccnc2ccccc12 -22.2%, COc1cccc(CNC(=O)c2c(OC)cc(=O)n3c2CCN(C(=O)c2csc(C)n2)CC3)c1 1.41%, COc1ccc2c3c1O[C@H]1C[C@H](O)C=C[C@@]31CCN(C)C2 -37.9%, O=C(O)c1ccc[n+]([O-])c1 -9.28%, COC(=O)N1CCC[C@@]2(CCN(c3ccccn3)C2)C1 -4.74%, COc1cc(-c2cc(=O)c3ccccc3o2)ccc1O -29.5%, NC[C@H]1O[C@H](O[C@H]2[C@H](O)[C@@H](O[C@H]3O[C@H](CO)[C@@H](O)[C@H](N)[C@H]3O)[C@H](N)C[C@@H]2N)[C@H](N)C[C@@H]1O -34.4%, C=CCOc1ccccc1OCC(O)CNC(C)C (centres undefined) -9.66%, CC(=O)N1CCC2(CCCN(c3ncccn3)C2)CC1 -3.78%, O=C(O)C1(O)C[C@H](O)C(O)[C@@H](O)C1 (some centres undefined) -12.3%, COc1ccc2c(c1)c(CC(=O)O)c(C)n2C(=O)c1ccccc1 -19.7%, CC(NC(=O)c1cccnc1)c1nnc2n1CCN(Cc1ccc(-c3ccccc3)cc1)CC2 (centres undefined) -8.1%, COc1ccc(-n2c(=O)c(C)nc3cnc(N4CCNCC4)nc32)cc1 -13.5%, Nc1nc2c(cnn2CCc2ccccc2)c2nc(-c3ccco3)nn12 -40.3%, COc1cccc(Cn2c(=O)c(C)nc3cnc(Oc4cccc(Cl)c4)nc32)c1 -8.42%, O=C(Nc1cccc(F)c1)N1CC2(CCN(C(=O)c3csnn3)CC2)C1 -0.619%, O=C(NCC1Cc2cccc(-c3ncccn3)c2O1)C1CCOC1 (centres undefined) -12%, O=C(CCn1cncn1)NCC1Cc2cc(-c3ccsc3)cc(Cl)c2O1 (centres undefined) 13.5%, Cc1oc(-c2ccccc2NC(=O)C2CCC2)nc1CNC(=O)c1cccc(C(F)(F)F)c1 4.54%, Cc1ccccc1Cc1nc2cccnc2n1C1CCN(C(=O)CC2NC(=O)c3ccccc32)CC1 (centres undefined) -10.3%, FC(F)(F)c1ccccc1-c1nc(-n2ccnc2)c2ccccc2n1 -10%, C[C@@H]1[C@H](c2ccccc2)OCCS(=O)(=O)N1Cc1ccccc1 -5.52%, COC(=O)N1CCC2(CCN(Cc3ccc(C#N)cc3)CC2)CC1 -21.7%, COc1c(Cl)ccc(Cl)c1C(=O)O -11.2%, CC1CN(c2cc3c(cc2F)c(=O)c(C(=O)O)cn3-c2ccc(F)cc2F)CCN1 (centres undefined) -22.2%, CCNc1ncc2nc(-c3cccs3)c(=O)n(-c3ccc(OC)cc3)c2n1 9.82%, CCCCNC(=O)NS(=O)(=O)c1ccc(N)cc1 -0.617%, CCOC(=O)/C=C(C)/C=C/C=C(C)/C=C/c1c(C)cc(OC)c(C)c1C 27.1%, C#CCN(Cc1ccccc1)S(=O)(=O)C=C -30.3%, C=C[C@@](C)(O)CC[C@@H]1[C@@]2(C)CCCC(C)(C)[C@@H]2CC[C@@]1(C)O -34.1%, O=C(CCBr)N1CCN(C(=O)CCBr)CC1 -12.2%, COc1cc2c(cc1OC)C(C(C(=O)N(CCc1ccc(OC)c(OC)c1OC)CCc1ccc(OC)c(OC)c1OC)c1ccccc1)=NCC2 (centres undefined) 6.78%, Cc1noc(C)c1-c1nc(NCc2cccs2)c2ccccc2n1 2.53%, CCCCC1C(=O)N(c2ccccc2)N(c2ccc(O)cc2)C1=O (centres undefined) -24.3% and 9.35%, N[C@H]1CONC1=O -33.6%, Cc1cnc(-n2ncc(C(=O)NCCc3cccnc3)c2C)nc1-c1ccc(F)cc1 -9.87%, Cc1cc(O)c2c(c1O)C(=O)c1c(O)cc(C)c(O)c1C2=O -3.45%, COc1cc(=O)n2c(c1C(=O)NCc1cccc(F)c1)CCN(Cc1cccnc1)CC2 -8.31%, COc1ccccc1CNc1ccnc(-c2ccoc2)n1 -10.4%, COc1cc(OC)c2ccc(=O)oc2c1 1.61%, CCN(CC)C(=O)Nc1ccc(OCC(O)CNC(C)(C)C)c(C(C)=O)c1 (centres undefined) -21.6%
